Biological target: T1, VEGF (vascular endothelial growth factor) (human, UniProt P15692-4 27-191, limits assumed)
T1 construct: also called VEGF-A
T1 sequence (looked up): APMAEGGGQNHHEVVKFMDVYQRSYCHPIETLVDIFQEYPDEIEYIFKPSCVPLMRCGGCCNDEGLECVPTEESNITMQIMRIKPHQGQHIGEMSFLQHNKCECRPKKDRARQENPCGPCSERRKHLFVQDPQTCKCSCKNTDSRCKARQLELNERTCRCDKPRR
Assay: ELISA per the heading of Example 3; the format of the VEGF assay is not described

B1: Fusion protein SEQ ID NO: 7 (Aflibercept fused through a 15 amino acid GS-linker to the hyaluronic acid binding protein of SEQ ID NO: 3) (Fc fusion)
chain: SDTGRPFVEMYSEIPEIIHMTEGRELVIPCRVTSPNITVTLKKFPLDTLIPDGKRIIWDSRKGFIISNATYKEIGLLTCEATVNGHLYKTNYLTHRQTNTIIDVVLSPSHGIELSVGEKLVLNCTARTELNVGIDFNWEYPSSKHQHKKLVNRDLKTQSGSEMKKFLSTLTIDGVTRSDQGLYTCAASSGLMTKKNSTFVRVHEK[sequence of human IgG1 Fc not given]GGGSGGGGSGGGGSGVFHLESPSGKYGLTFDEAREACEAEGATLATYKQLEAAQKAGFHLCSAGWLATGRVAYPTAKPSPNCGSGRVGIVDYGPRPNKSEQWDAYCYRPHA
notes: It forms a homodimer and was expressed in HEK293 cells
EC50: < 1 nM

B2: Fusion protein SEQ ID NO: 8 (Aflibercept fused through a 15 amino acid GS-linker to the hyaluronic acid binding protein of SEQ ID NO: 4) (Fc fusion)
chain: SDTGRPFVEMYSEIPEIIHMTEGRELVIPCRVTSPNITVTLKKFPLDTLIPDGKRIIWDSRKGFIISNATYKEIGLLTCEATVNGHLYKTNYLTHRQTNTIIDVVLSPSHGIELSVGEKLVLNCTARTELNVGIDFNWEYPSSKHQHKKLVNRDLKTQSGSEMKKFLSTLTIDGVTRSDQGLYTCAASSGLMTKKNSTFVRVHEK[sequence of human IgG1 Fc not given]GGGSGGGGSGGGGSGVYHREAPSGKYGLTYAEAKAVCEFEGGHLATYKQLEAAQKIGFHVCAAGWMAKGRVGYPIVKPGPNCGFGKTGIIDYGIRLNRSERWDAYCYNPHA
notes: as for B1
EC50: < 1 nM
